# PMC4336329 (PLoS ONE, 2015)
# In all, about 310,000 compounds went through this assay and about 2,200 (0.71%) showed an effect of 50% or more. Effects have a minus sign here. The list shows a part of the results.
# Biological target: human ether-à-go-go-related gene (hERG) potassium channel (human, UniProt Q12809)
# Test: primary screen, population patch clamp on CHO cells stably expressing hERG
# human ether-à-go-go-related gene (hERG) potassium channel, sequence (Q12809 whole entry, looked up): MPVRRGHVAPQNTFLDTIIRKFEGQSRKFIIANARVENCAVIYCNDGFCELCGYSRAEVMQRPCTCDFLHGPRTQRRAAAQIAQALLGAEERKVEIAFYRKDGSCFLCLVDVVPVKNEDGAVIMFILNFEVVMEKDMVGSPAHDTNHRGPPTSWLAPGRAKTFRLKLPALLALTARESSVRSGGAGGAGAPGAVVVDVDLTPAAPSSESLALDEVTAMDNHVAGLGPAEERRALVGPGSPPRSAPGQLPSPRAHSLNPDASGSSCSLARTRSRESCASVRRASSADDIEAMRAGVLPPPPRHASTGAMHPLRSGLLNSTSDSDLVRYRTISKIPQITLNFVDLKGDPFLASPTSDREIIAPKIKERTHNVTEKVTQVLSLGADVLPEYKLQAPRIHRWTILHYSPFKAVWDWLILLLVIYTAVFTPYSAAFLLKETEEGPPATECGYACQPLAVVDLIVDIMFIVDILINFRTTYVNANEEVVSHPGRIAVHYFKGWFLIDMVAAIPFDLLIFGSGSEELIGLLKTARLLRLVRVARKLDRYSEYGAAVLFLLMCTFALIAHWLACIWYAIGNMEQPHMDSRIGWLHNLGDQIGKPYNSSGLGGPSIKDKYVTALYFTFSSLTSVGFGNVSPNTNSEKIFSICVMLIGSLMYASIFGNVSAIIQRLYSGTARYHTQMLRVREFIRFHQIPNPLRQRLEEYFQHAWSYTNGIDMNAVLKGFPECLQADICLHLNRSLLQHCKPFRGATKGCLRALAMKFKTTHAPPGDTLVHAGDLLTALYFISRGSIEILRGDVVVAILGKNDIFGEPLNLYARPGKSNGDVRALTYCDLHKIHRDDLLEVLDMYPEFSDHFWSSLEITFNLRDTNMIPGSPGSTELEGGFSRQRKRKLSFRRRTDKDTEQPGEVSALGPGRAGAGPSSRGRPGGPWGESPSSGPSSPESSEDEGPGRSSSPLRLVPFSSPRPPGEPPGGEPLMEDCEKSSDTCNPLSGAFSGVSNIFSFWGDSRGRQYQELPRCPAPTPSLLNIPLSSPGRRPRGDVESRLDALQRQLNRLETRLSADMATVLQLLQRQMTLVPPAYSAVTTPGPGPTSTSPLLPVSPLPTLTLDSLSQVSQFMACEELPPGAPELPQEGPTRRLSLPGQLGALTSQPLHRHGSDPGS
row,Compound,"hERG current change (%, negative = inhibition) at 1uM [%]"
1,C=C(C)CSc1nnc([C@@H]2CCCN2)o1.Cl,17.6
2,COc1ccccc1NS(=O)(=O)c1ccc(C(=O)NCCCN2CCCC2=O)cc1,8.88
3,CCCC(c1nnnn1C1CCCC1)N1CCN(C(=O)c2ccco2)CC1.Cl (stereo not drawn),-11.7
4,COc1ccccc1NS(=O)(=O)c1ccc(O)c(NC(=S)NCC2CCCO2)c1 (stereo not drawn),11.1
5,C[C@H](NC(=O)N1CCn2c1nc1ccccc12)C(=O)NC1CC1,16.6
6,CCn1c(CCCOc2ccc(Cl)cc2Cl)nnc1SCC(=O)Nc1cc(F)ccc1C,10.7
7,CC(=O)NCCC(=O)Nc1nc2c(ccc3ccccc32)s1,2.61
8,O=C(OCC(=O)c1c[nH]c2ccccc12)c1cccc(S(=O)(=O)N2CCCCCC2)c1,9.14
9,O=C(O)CC(c1ccccc1)n1cccc1 (stereo not drawn),9.23
10,COc1c(Cl)cc(-c2noc(C)c2C(=O)NCc2ccc3c(c2)OCO3)cc1Cl,10.5
11,O=S(=O)(c1cccs1)N1CCN(c2cccc(Cl)c2)CC1,7.08
12,CCOC(=O)C1CCN(C(=O)COC(=O)c2cc([N+](=O)[O-])ccc2N2CCOCC2)CC1,1.29
13,O=C(Nc1ccc(C(F)(F)F)cc1)C1CCN(S(=O)(=O)c2ccc(N3CCCC3=O)cc2)CC1,16.5
14,Nc1nc(N)nc(-c2ccccn2)n1,11.8
15,Cc1ccc(N2C(=O)c3ccccc3C2Nc2ccccc2F)nc1 (stereo not drawn),11.4
16,Cc1cc(C)c(S(=O)(=O)N(C)CC(=O)N2CCCCC2)c(C)c1,2.58
17,O=C(Cc1cccs1)Nc1nnc(SCc2cccc3ccccc23)s1,-3.03
18,CCn1cc(/C=N\NC(=O)c2ccc(Cl)cc2)cn1,6.62
19,CS(=O)(=O)c1ccc2nc(NC(=O)C3CC(=O)N(c4ccc(F)cc4)C3)sc2c1 (stereo not drawn),13.5
20,Cc1nn(-c2ccccc2)c(N2CCCC2)c1/C=C1\N=C(c2ccc(F)cc2)OC1=O,8.64
21,CC(=O)c1c(C)oc2ccc(N(C(C)=O)S(=O)(=O)c3cccc([N+](=O)[O-])c3)cc12,15.4
22,CC1CCN(C(=O)CN2C(=O)C(C)(C)Oc3ccc(C(=O)NC(C)C)cc32)CC1,6.29
23,O=C(CNC(=O)c1ccc([N+](=O)[O-])cc1)c1ccccc1,0.298

row,Compound,"hERG current change (%, negative = inhibition) at 1uM [%]"
1,C/C=C(\C)CN1CCC(Oc2ccc(C(=O)NCc3ccccn3)cc2)CC1,14.8
2,Cc1ccc(N=C/C(C(=O)C(F)(F)F)=C(\O)c2cccs2)cc1,17.4
3,CCOC(=O)CC1ON(C)C(=O)N1c1ccc(Cl)cc1Cl (stereo not drawn),-1.26
4,COC(=O)c1ccc(COc2ccccc2/C=N/NC(=O)c2cccnc2)cc1,13.1
5,CC(C)(C)CC(=O)O/N=C(\N)c1ccncc1,10.1
6,O=C(NC1CCCCCCC1)C1=COCCO1,10.1
7,NC(=O)C1CCN(c2cc(Cl)ccc2[N+](=O)[O-])CC1,12.6
8,COc1cccc2c1OC1(C)CC2NC(=O)N1c1cccc(C(=O)Nc2ccc3c(c2)OCCO3)c1 (stereo not drawn),11
9,Cc1nc2ccccc2c(=O)n1CC(=O)N1CCOCC1,6.48
10,CC(C)(C)C(=O)CSc1ncccn1,14
11,O=C(O)C[C@H]1c2cc(C(F)(F)F)ccc2S(=O)(=O)N1C1CCCCC1,22.5
12,Cc1cc(C(=O)OCC(=O)c2ccc(Cl)c([N+](=O)[O-])c2)c2cccc(C)c2n1,9.57
13,COC(=O)c1sccc1NC(=O)c1ccco1,15.6
14,COCCNS(=O)(=O)c1ccc(SC)cc1,13.1
15,C=CCn1c(COc2ccccc2)nc2ccccc21,-2.04
16,CCOc1ccc(C(=O)NCc2cccs2)cc1,5
17,COC(=O)C(C(=O)OC)=C(/C=C/N(C)C)N(C)C,7.2
18,CCc1c(O)nc(SCC(=O)c2ccccc2)n(-c2ccccc2)c1=O,19.7
19,CCOC(=O)c1c(N)nn(C(=O)C(C)(C)C)c1-c1ccccc1,10.6
20,Cc1cc(C)cc(-n2c(O)c(C=NC3CCS(=O)(=O)C3)c3ccccc3c2=O)c1 (stereo not drawn),4.25
21,CCOc1ccc(CCNC(=O)COc2cc(=O)n(C)c3ccccc23)cc1OCC,-2.83
22,Cc1ccc(CNC(=O)CNC(=O)c2ccc(Br)o2)cc1,12.1
23,CN(C)CCCSc1ccccc1NC(=O)/C=C/c1ccccc1.Cl.O,-2.32

row,Compound,"hERG current change (%, negative = inhibition) at 1uM [%]"
1,Cc1ccc2c(c1)c1c3n2CCN(C(=O)C2CC2)C3CCC1 (stereo not drawn),7.06
2,Cc1cccc(NC(=O)CSCC(=O)N=c2sccn2C)c1,-5.56
3,CCOC(=O)/C=c1\s/c(=C\c2ccccc2OC)c(=O)n1CC(=O)N1CCOCC1,9.87
4,CCOC(=O)N1CCN(C(=O)Cn2ncc3ccccc32)CC1,9.08
5,Cc1cc(C)c(C#N)c(SCc2ccccc2F)n1,17.9
6,Cc1ccc(Cl)cc1N1CCN(C(=S)NCCc2ccccc2)CC1,11.5
7,COc1ccccc1CNCC(=O)Nc1ccc(N(C)C)cc1.O=C(O)C(=O)O,6.69
8,O=C1CCCC2=C1C(c1ccco1)Nc1ccc(C(=O)c3ccccc3)cc1N2 (stereo not drawn),5.24
9,Cn1c(=O)c2[nH]c(N=NNc3ccccc3F)nc2n(C)c1=O,7.49
10,Nc1c(-c2ccccc2)cnc2ncnn12,4.86
11,COCC(=O)N1CCC(Oc2ccc(C(=O)N3CCCCC3COC)cc2)CC1 (stereo not drawn),12.9
12,COc1ccc([N+](=O)[O-])cc1NC(=O)CSc1nc(C)cc(C)n1,9.76
13,CCCCn1c(N)c(N(CC(C)C)C(=O)c2cccs2)c(=O)[nH]c1=O,3.79
14,COc1cc2c(cc1OC)C(COc1ccccc1OC)N(C(=O)C(C)(C)C)CC2 (stereo not drawn),5.43
15,Cc1cc(=O)[nH]c(SCC(=O)NN(c2ccccc2)c2ccccc2)n1,5.55
16,Cc1oc(-c2ccc(Cl)cc2)nc1CS(=O)CC(=O)NCc1ccco1 (stereo not drawn),4.23
17,O=C(Cn1cc(C(=S)N2CCOCC2)c2ccccc21)N1CCOCC1,15.6
18,Cc1ccccc1-c1nn(-c2ccc(F)cc2F)cc1CNCCCO,12.2
19,COc1ccccc1C(=O)NC(=O)COC(=O)CNC(=O)c1ccc(Cl)cc1Cl,13.4
20,COC(=O)c1ccccc1Nc1ccnc(Cl)n1,-6.9
21,C=CCNC(=S)Nc1ccc(C)c(S(=O)(=O)N2CCCCC2)c1,0.161
22,Cc1cc(C)c2ccc(/C=N/O)nc2c1O,8.72
23,Cc1ccc(CC(=O)O/N=C(\N)c2ccccn2)cc1,5.66

row,Compound,"hERG current change (%, negative = inhibition) at 1uM [%]"
1,CCCN1C2CCCC1CC(NC(=O)c1ccccc1)C2 (stereo not drawn),4.52
2,COc1ccc(C2C(C(=O)OCC(=O)NC(C)(C)C)CCC(=O)N2c2ccc(C)cc2)cc1OC (stereo not drawn),0.459
3,O=C(Nc1nccs1)c1ccc(N2C(=O)[C@@H]3[C@H](C2=O)[C@H]2C=C[C@@H]3C2)cc1,3.74
4,CC(C)c1ccc(/C=N/NC(=O)CCNC(=O)c2ccccc2)cc1,-14.3
5,COc1ccc(OC)c(S(=O)(=O)Nc2cc(OC)c(Cl)cc2OC)c1,13.1
6,Cc1cc(C)n(CC(C)NCc2c(C(=O)N3CCOCC3)nc3c(C)cccn23)n1 (stereo not drawn),8.88
7,CCOc1ccc(C2CC(c3ccccc3C)n3ncnc3N2)cc1 (stereo not drawn),6.88
8,CC(=O)N1c2ccccc2CCc2ccc([N+](=O)[O-])cc21,10.6
9,O=C1/C(=C/c2cccc(O)c2)SC(=S)N1CC1CCCO1 (stereo not drawn),13.7
10,CCCc1nnc(SCC(=O)N2CCCCC2C)n1CCOC (stereo not drawn),5.73
11,O=C(O)c1nn(CC(=O)N2CCCCCC2)c(=O)c2ccccc12,16
12,O=c1[nH]c(=O)n(CCC2=CCCCC2)c(O)c1C=NCc1cccnc1,9.06
13,COc1cc(NC(=O)COC(=O)C=C(C)C)c(C)cc1[N+](=O)[O-],-0.468
14,NS(=O)(=O)c1ccc(NC(=O)/C=C/c2ccco2)cc1,4.45
15,CCOC(=O)c1ccc(NC(=O)c2c(C)[nH]c(C(=O)OCC)c2C)cc1,-2.74
16,OCc1nc(CO)n(Cc2ccccc2)n1,-0.673
17,O=C(COC(=O)c1c2c(nc3ccccc13)/C(=C\c1cccs1)CCC2)Nc1ccccc1,-3.82
18,O=C(CN1C(=O)c2ccccc2S1(=O)=O)NCCSCc1ccco1,6.7
19,N#Cc1c(N2CCN(C(=O)c3ccco3)CC2)nc(-c2ccccc2)c2c1CCCC2,9.26
20,CCCCCCn1cnc2c(oc3nc4c(cc32)CCCC4)c1=O,10.5
21,Cc1c(NC(=O)C2CCCCC2)cc(C(=O)N2CCOCC2)cc1[N+](=O)[O-],0.815
